The record followed here is PubChem BioAssay AID1963576 (National Center for Advancing Translational Sciences (NCATS), 2024).

Among all 46,000 compounds or so, about 60 (0.1%) were called active. Roughly 3% stayed inconclusive and do not appear here. Calls follow the shape of the dose curve; as a rule, active = well fitted inhibition curve with a large enough effect; inconclusive = small, poorly fitted or top-dose-only effect; inactive = no such curve, though single readings can be large or run the other way. The list shows a part of the results.

The assay can be described thus: Primary qHTS assay for Inhibitors of ovarian cancer metastasis using an organotypic tumor microenvironment (TME) model. Also: nearly all actives have a fitted effect of over 65% in size.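 As to activity change, negative = inhibition: plate controls were DMSO wells for no effect and tomatine positive control wells for full effect.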 The following applies: SKOV3ip1-GFP adhesion/invasion on 3D omental model, fluorescence; series mostly up to 45.8 µM; activity change, negative = inhibition: at the top concentration. The procedure, abridged:
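qHTS, 4-pt dose (0.36-46 umol/L); SKOV3ip1-GFP, 1,200 cells/well, no FBS; primary omental fibroblast/mesothelial co-culture 48 h pre-grown; 2 h RT + 16 h 37 C; PBS wash, 4% PFA; GFP count 488/509 nm.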
With `Cc1ccc(F)cc1NC(=O)CCc1c(C)nn(-c2ccc(N3CCOCC3)nn2)c1C`, the “activity change, negative = inhibition” value was inactive: 67.2%.
`CC1Cn2c(C(=O)NCCc3ccc(Cl)cc3)cc3cccc(c32)S1` (stereo unspecified): the “activity change, negative = inhibition” value is inactive: 5.08%.
Still for that read-out and setting: to `Cc1ccc2[nH]cc(S(=O)(=O)c3ccc(C)c(C)c3)c(=O)c2c1` belongs inactive: 4.7%.
The same measure, in the same setting: for `CC1CCN(c2nn3c(=O)c(C(=O)NCCc4ccccc4)cnc3s2)CC1` the value was inactive: 0.356%; for `Cc1cc(=O)n(C(C)C(=O)N2CCCc3ccccc32)c2c1c(C)nn2-c1ccccc1` (stereo unspecified), inactive: 2.63%; for `O=C(CN1C(=O)COc2ccc(S(=O)(=O)N3CCCCCC3)cc21)Nc1cccc(Cl)c1`, inactive: 1.43%.
On the same count and under the same terms, for `COc1ccc(-c2cc(C(=O)Oc3ccc(C)cc3)c3cc(C)ccc3n2)cc1` the value was inactive: 4.62%; for `Cc1nc2scc(C)n2c(=O)c1S(=O)(=O)Nc1ccc(N2CCN(S(C)(=O)=O)CC2)cc1`, inactive: -7.12%; for `CC(=O)N1CCc2c(sc3nc(SCC(C)C)n(-c4ccc(C)c(Cl)c4)c(=O)c23)C1`, inactive: -4.91%.
On to `Cc1ccc(-c2nnc(Nc3ccc(OC(F)(F)Cl)cc3)c3ccccc23)cc1S(=O)(=O)NC(C)(C)CO`, for which the “activity change, negative = inhibition” value was inactive: 28.3%.
The same measure, in the same setting: to `O=C(COc1ccccc1)N(Cc1cccnc1)c1nc2c(F)cccc2s1` belongs inactive: -1.11%; to `O=C(Nc1ccc(-c2nc3cc(NC(=O)c4ccc(F)cc4)ccc3o2)cc1)c1ccc(F)cc1`, inactive: 13.7%; to `CCc1nn2c(=O)cc(COC(=O)c3ccc(NC(=O)CCc4ccccc4)cc3)nc2s1`, inactive: 1.63%.
The same measure, in the same setting: to `CCCCn1c(=N)c(S(=O)(=O)c2ccc(C)cc2)cc2c(=O)n3cc(C)ccc3nc21` belongs inactive: 13.3%; to `CCCN(CCC)CCCNC(=O)c1cnn(-c2ccc(F)cc2)c1-n1cccc1`, inactive: -13.5%.
`COc1cc(/C=C(\C#N)c2nc3ccccc3[nH]2)ccc1OCc1ccc(F)cc1`: the “activity change, negative = inhibition” value was inactive: 34.6%.
Still for that read-out and setting: to `COc1cc(-c2nc(SCC(=O)Nc3ccc(C)cc3)c(-c3ccc(F)cc3)[nH]2)cc(OC)c1OC` belongs inactive: 5.93%; to `CCc1nc(SC)ncc1C(=O)N1CCN(c2cc(Cl)ccc2C)CC1`, inactive: 0.148%; to `CC(NC(=O)C1CCN(S(=O)(=O)c2ccccc2)CC1)c1ccccc1` (stereo unspecified), inactive: 16.4%.
Regarding `Cc1nn(C(C)C(=O)Nc2ccc(C(C)C)cc2)c(=O)c2c1sc1ccccc12` (stereo unspecified), the “activity change, negative = inhibition” value is inactive: 13.1%.
On the same count and under the same terms, to `Cc1ccccc1CNC(=O)C1=Cc2ccccc2OC1` belongs inactive: 4.88%; to `CCCn1c2ccccc2c2cnn(CC(=O)NCC3CCN(Cc4ccc(F)cc4)CC3)c(=O)c21`, inactive: -22.4%; to `CCc1ccccc1NC(=O)c1cc(S(=O)(=O)N2CCc3ccccc32)ccc1F`, inactive: 3.59%.
The same measure, in the same setting: for `COc1ccccc1CNc1nc(-c2ccco2)nn1C(=O)c1cc(OC)c(OC)c(OC)c1` the value was inactive: 5.13%.
Take `CN(Cc1cnc2nc(N)nc(N)c2n1)c1ccc(C(=O)N[C@@H](CCC(=O)O)C(=O)O)cc1`: the “activity change, negative = inhibition” value is inactive: 25%.
Regarding `C#CC(C)(CC)NC(=O)Cn1nnc(-c2ccc(OCc3ccccc3C)cc2)n1` (stereo unspecified), the “activity change, negative = inhibition” value was inactive: 1.47%.
With `Cc1cccc(-c2nn3c(=O)cc(CN4CCN(C(=O)c5ccccc5Br)CC4)nc3s2)c1`, the “activity change, negative = inhibition” value was inactive: -0.666%.
On the same count and under the same terms, for `COc1ccccc1N1CCN(C(=O)c2cnn(-c3cccc(Cl)c3)c2C2CCN(C(=O)OC(C)(C)C)CC2)CC1` the value was inactive: 12.7%; for `CN(C)c1ccc(-c2nnc3n(Cc4ccccc4)c(=O)c4ccccc4n23)cc1`, inactive: -4.37%; for `CC(=O)Nc1ccc(NC(=O)CCSCCc2ccccn2)cc1`, inactive: 5.63%.
Still for that read-out and setting: to `Cc1ccc(NC(=O)c2c(NC(=O)Cc3ccccc3)sc3c2CCCC3)cc1` belongs inactive: 6.39%.
As for `CCC(=O)C1=C(c2ccc(OC)c(OC)c2)N(C(=O)CC)n2c(CC)nnc2S1`, the result was inactive.
As to `CC(=O)c1cccc(NC(=O)Cn2c(=O)oc3cc(S(=O)(=O)N4CCCC4)ccc32)c1`, the “activity change, negative = inhibition” value was inactive: 5.14%.
`CCOc1ccc(CCNC(=O)CN2C(=O)COc3ccc(S(=O)(=O)N4CCCCCC4)cc32)cc1`: the call was inactive.
For `CC(C)(C)c1ccc(Oc2ccc(NC(=O)CCC(=O)OCC(=O)c3ccccc3)cc2)cc1`, the “activity change, negative = inhibition” value was inactive: -1.06%.
On the same count and under the same terms, to `Cc1ccc2oc(=O)c3cc(C(=O)N4CCN(c5ccccc5F)CC4)sc3c2c1` belongs inactive: 3.03%.
For the compound `COc1ccc(-n2c(SCC(=O)Nc3cccc(C)c3C)nc3c([nH]c4ccccc43)c2=O)cc1`, the “activity change, negative = inhibition” value was inactive: -11.9%.
Turning to `N#Cc1c(-n2ncnc2-c2cccc(Br)c2)sc2c1CCCCC2`, the outcome was inactive.
As to `CN(C)c1ccc(CNC(=O)c2ccc(NC(=O)N3CCCCc4ccccc43)cc2)cc1`, the “activity change, negative = inhibition” value is inactive: -2.34%.
Still for that read-out and setting: to `CCc1ccccc1NC(=O)C1CCN(c2cnccn2)CC1` belongs inactive: 4.86%.
As to `Cc1ccc(Cl)cc1N1CCN(C(=O)CCCn2c(=O)[nH]c3ccc(Br)cc3c2=O)CC1`, the compound was called inactive.
For the compound `CCCCSCCCNC(=O)c1cn(C)c2ccc(S(=O)(=O)N3CCCCCC3)cc2c1=O`, the “activity change, negative = inhibition” value is inactive: 0.646%.
Regarding `O=C(NCCS(=O)(=O)N1CCN(c2ccc(F)cc2)CC1)c1cccc(C(F)(F)F)c1`, the call was inactive.
As for `CC(C)CCn1nnc2sc(-c3ccccc3)cc2c1=O`, the “activity change, negative = inhibition” value is inactive: 2.59%.
On to `COc1cc(NC(=O)CSc2nccn2C)cc(OC)c1OC`, for which the compound was called inactive.
`COc1ccc2c(c1)c1c(c(=O)n(-c3ccc(OC)c(OC)c3)c(=O)n1Cc1ccccc1F)n2C`: the “activity change, negative = inhibition” value was inactive: -8.12%.
